{
  "source": "PubChem BioAssay AID485281",
  "about": "(National Center for Advancing Translational Sciences (NCATS), 2010)",
  "note": "Screen size: about 350,000 compounds; about 260 (0.074%) were called active. The inconclusive results got no clear call from the source; some entries with a clear call stand among them for comparison. The call rests on the fitted dose curve; in most records, active means well fitted inhibition curve with a large enough effect; inconclusive means small, poorly fitted or top-dose-only effect; inactive means no such curve, though single readings can be large or run the other way. Potencies of inconclusive entries are doubtful fits and often do not repeat. On the % scale 0 is the no-effect control and ±100 the full control effect; potency means the concentration at half of the fitted maximal effect; tags describe the fitted curve by direction and shape.",
  "data": [
    {"biological_target": "Ferritin light chain (Equus caballus) (UniProt P02791)", "sequence (P02791 whole entry, looked up)": "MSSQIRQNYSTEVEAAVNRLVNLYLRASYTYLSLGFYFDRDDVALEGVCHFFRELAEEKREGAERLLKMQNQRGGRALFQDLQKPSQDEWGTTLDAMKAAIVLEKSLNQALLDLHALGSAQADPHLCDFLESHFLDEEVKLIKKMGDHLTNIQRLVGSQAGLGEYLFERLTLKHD", "assay": "qHTS Assay for Identification of Novel General Anesthetics; further: nearly all actives have a fitted effect of over 20% in size", "conditions": "apoferritin/1-aminoanthracene competitive binding, fluorescence; activity change, negative = displacement: at 77.5 µM (top of the series)", "summary_of_the_method": "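In PBS, apoferritin at 10 uM is loaded with 1-AMA from a 50% saturated solution. After 10 min of compound exposure at ambient temperature, reduced 535 nm fluorescence indicates probe displacement.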", "values": [
      {"smiles": "COc1ccc(CC(=O)Nc2nc3c(s2)CC(C)CC3)cc1", "note": "(stereo unspecified)", "Potency": "inconclusive: 15.8 µM [inhibitor, partial curve]"},
      {"smiles": "CCN(C(=O)COc1cc(=O)n(CC)c2ccccc12)c1cc(Cl)ccc1OC", "Potency": "inconclusive: 17.8 µM [inhibitor, partial curve]"},
      {"smiles": "C=CCSc1nc2ccccc2n1C(=O)/C=C/c1cc(OC)c(OC)c(OC)c1", "Potency": "inconclusive: 28.2 µM [inhibitor, partial curve]"},
      {"smiles": "O=C(NCCc1nnc2ccc(N3CCCCCC3)nn12)c1ccccc1", "Potency": "inconclusive: 17.8 µM [inhibitor, partial curve]"},
      {"smiles": "O=C(NCc1cccc(Cl)c1)c1c2c(nc3ccccc13)C(=O)N(C1CCCCC1)C2", "Potency": "inconclusive: 11.2 µM [inhibitor, single point]"},
      {"smiles": "CC1CN(C(=O)N2CCC(C(=O)NCCCc3ccccc3)CC2)c2cc(Cl)ccc2O1", "note": "(stereo unspecified)", "activity change, negative = displacement": "inactive: -6.39%"},
      {"smiles": "CCc1ccc(N2CC(C(=O)Nc3nccs3)CC2=O)cc1", "note": "(stereo unspecified)", "Potency": "inconclusive: 25.1 µM [inhibitor, partial curve]"},
      {"smiles": "CC12CN(C(=O)c3cccc([N+](=O)[O-])c3)C3(C#N)CC1CCC23C", "note": "(stereo unspecified)", "Potency": "inconclusive: 31.6 µM [inhibitor, partial curve]"},
      {"smiles": "O=C(O)COc1ccc(NC(=O)c2ccc3c(c2)C(=O)N(C2CCCCC2)C3=O)cc1", "activity change, negative = displacement": "inactive: -15%"},
      {"smiles": "COc1ccc(N2C(=O)CSC2c2cccs2)cc1", "note": "(stereo unspecified)", "Potency": "inconclusive: 56.2 µM [inhibitor, single point]"},
      {"smiles": "c1ccc(-c2csc3ncnc(NCCCN4CCOCC4)c23)cc1", "activity change, negative = displacement": "inactive: -6.59%"},
      {"smiles": "Cc1ccc(C(=O)/C=C/c2ccccc2)o1", "Potency": "inconclusive: 44.7 µM [inhibitor, single point]"},
      {"smiles": "CCc1nnc2sc(-c3ccc(NC(=O)c4ccco4)cc3)nn12", "activity change, negative = displacement": "inactive: -13.1%"},
      {"smiles": "CCC(=O)N1CCN=C1SCc1ccccc1Cl", "Potency": "inconclusive: 39.8 µM [inhibitor, partial curve]"},
      {"smiles": "CCc1cccc(NS(=O)(=O)c2c(C)[nH]c(=O)[nH]c2=O)c1", "Potency": "inconclusive: 39.8 µM [inhibitor, single point]"},
      {"smiles": "O=C(Nc1ccc(Nc2ccccc2)cc1)c1ccc(Br)o1", "Potency": "inconclusive: 14.1 µM [inhibitor, partial curve]"},
      {"smiles": "CC(C)(C)C(=O)Nc1ccc(C(=O)OC2CCCCC2)cc1", "Potency": "inconclusive: 39.8 µM [inhibitor, partial curve]"},
      {"smiles": "CC(C)CC(CSc1ccc(Br)cc1)N1CCN(CC(C)C)CCC1=O", "note": "(stereo unspecified)", "activity change, negative = displacement": "inactive: -17.6%"},
      {"smiles": "Cn1c(C(O)c2ccccc2F)nc(Cl)c1Cl", "note": "(stereo unspecified)", "Potency": "inconclusive: 35.5 µM [inhibitor, partial curve]"},
      {"smiles": "Cn1c(CCN2CCCCC2)nc2cc(NC(=O)NC3CCCCC3)ccc21", "Potency": "inconclusive: 31.6 µM [inhibitor, partial curve]"},
      {"smiles": "Cc1cc(Nc2ccccc2Cl)nc(-c2ccccc2O)n1", "activity change, negative = displacement": "inactive: -9.97%"},
      {"smiles": "CCOC(=O)c1c(NC(=O)CC2SC(N)=NC2=O)sc2c1CCCC2", "note": "(stereo unspecified)", "Potency": "inconclusive: 35.5 µM [inhibitor, partial curve]"},
      {"smiles": "COc1ccc(CCNC(=O)C(=O)NCc2ccc(Cl)cc2)cc1OC", "Potency": "inconclusive: 17.8 µM [inhibitor, partial curve]"},
      {"smiles": "O=C(/C=C/c1ccc(Cl)cc1)N1CCN(c2ccc(Cl)cc2[N+](=O)[O-])CC1", "Potency": "inconclusive: 31.6 µM [inhibitor, partial curve]"},
      {"smiles": "O=C(c1ccc(NS(=O)(=O)c2ccccc2)cc1)N1CCCCCC1", "Potency": "inconclusive: 31.6 µM [inhibitor, partial curve]"},
      {"smiles": "Cc1cc(C)cc(OCCCn2ccnc2)c1", "Potency": "inconclusive: 14.1 µM [inhibitor, partial curve]"},
      {"smiles": "CCCCC(=O)NC(c1cccc([N+](=O)[O-])c1)c1c(OC(C)=O)ccc2ccccc12", "note": "(stereo unspecified)", "activity change, negative = displacement": "inactive: -15.1%"},
      {"smiles": "Nc1nonc1NC(=O)CSc1nc2ccccc2s1", "Potency": "inconclusive: 39.8 µM [inhibitor, partial curve]"},
      {"smiles": "COc1c(O)cccc1-c1nnn(CCC(=O)OCC(=O)c2ccccc2)n1", "Potency": "inconclusive: 28.2 µM [inhibitor, partial curve]"},
      {"smiles": "CCc1ccc(NC(=O)c2noc3c2CCC3)cc1", "Potency": "inconclusive: 39.8 µM [inhibitor, single point]"},
      {"smiles": "O=C(CCCc1nc(-c2ccc(Cl)cc2)no1)NC1CCCCC1", "activity change, negative = displacement": "inactive: -8.62%"},
      {"smiles": "O=C(NNC(=O)c1ccccc1Cl)c1cccs1", "activity change, negative = displacement": "inactive: -8.06%"},
      {"smiles": "Cc1cccc(NC(=O)CN2C(=O)N/C(=C/c3cc(C)n(C(C)C)c3C)C2=O)c1", "Potency": "inconclusive: 22.4 µM [inhibitor, partial curve]"},
      {"smiles": "CCCCOc1ccc(CNC(=O)c2cccc(NC(=O)N3CCSc4ncccc43)c2)cc1", "Potency": "inconclusive: 44.7 µM [inhibitor, single point]"},
      {"smiles": "CC1=CC(=O)C=CC1(C)C(Cl)Cl", "note": "(stereo unspecified)", "Potency": "inconclusive: 35.5 µM [inhibitor, single point]"},
      {"smiles": "COc1cccc(CC2(CO)CCCN(S(=O)(=O)N(C)C)C2)c1", "note": "(stereo unspecified)", "activity change, negative = displacement": "inactive: -5.55%"},
      {"smiles": "CCCCn1c(N)nc2ccccc21", "activity change, negative = displacement": "inactive: -9.01%"},
      {"smiles": "COc1cc(Sc2ccc(C)cc2)c(OC)cc1N", "Potency": "inconclusive: 15.8 µM [inhibitor, partial curve]"},
      {"smiles": "CC(=O)Nc1ccc(N2C(=O)CSC2c2c(F)cccc2Cl)cc1", "note": "(stereo unspecified)", "Potency": "inconclusive: 22.4 µM [inhibitor, partial curve]"},
      {"smiles": "CC1CCC(NC(=O)C(=O)Nc2ccc3c(c2)OCO3)CC1", "note": "(stereo unspecified)", "activity change, negative = displacement": "inactive: -10.7%"},
      {"smiles": "[O-]c1n[n+](-c2ccc(Cl)cc2Cl)cc2ccccc12", "Potency": "inconclusive: 44.7 µM [inhibitor, single point]"},
      {"smiles": "O=c1[nH]c2ccccc2n1CCC1CCCCC1", "Potency": "active: 28.2 µM"},
      {"smiles": "CCOc1cccc2sc(N(Cc3cccnc3)C(=O)c3ccc(C#N)cc3)nc12", "Potency": "inconclusive: 35.5 µM [inhibitor, partial curve]"},
      {"smiles": "O=C(NCc1ccccc1Cl)c1ccc2oc(=O)n(Cc3ccccc3)c2c1", "Potency": "inconclusive: 7.08 µM [inhibitor, partial curve]"},
      {"smiles": "Cc1cc(C)n(-c2nc3ccccc3nc2N2CCN(c3cccc(C(F)(F)F)c3)CC2)n1", "activity change, negative = displacement": "inactive: -1.22%"},
      {"smiles": "O=C(O)CCCNc1cc(N2CCN(C(=O)c3ccco3)CC2)c2noc3c2c1C(=O)c1ccccc1-3", "activity change, negative = displacement": "inactive: -5.9%"}
    ]}
  ]
}
